In PubChem BioAssay AID1508624 (National Center for Advancing Translational Sciences (NCATS), 2021):
In all, about 48,000 compounds went through this assay and about 120 (0.25%) were called active. Roughly 4% stayed inconclusive and do not appear here. Calls follow the shape of the dose curve; as a rule, active = well fitted activation curve with a large enough effect; inconclusive = small, poorly fitted or top-dose-only effect, or another doubt; inactive = no such curve, though single readings can be large or run the other way. The list shows a part of the results.

Assay: Primary qHTS for Identification of Small Molecule Activators of Huntingtin-Antisense Promoter Activity; also: nearly all actives have a fitted effect of over 55% in size
Details: HEK293 HTT-AS promoter firefly luciferase reporter, 24 h; series mostly up to 57.5 µM; activity change, positive = activation: at the top concentration
In short: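 HEK293 luciferase promoter-reporter cells (2,500/well) plated 24 h, then compounds added at up to 57.5 uM final for 24 h at 37 °C. Firefly luminescence by Dual-Glo, normalized to vehicle (0%) and zero RLU (-100%).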

| SMILES | activity change, positive = activation |
| --- | --- |
| COc1ccc(OC2CCN(S(=O)(=O)c3ccc(OC)cc3)CC2)cc1 | inactive: -24.3% |
| CCOC(=O)N1CCc2c(sc(NCc3ccc(OCC)cc3)c2C(=O)Nc2ccc(OC)cc2OC)C1 | inactive: -82% |
| O=C(NC1CCCC1)c1ccc(CSc2nc3ccncc3n2Cc2ccccc2F)cc1 | inactive: 2.77% |
| O=C(Nc1ccccc1F)C(Cc1ccccc1)n1cccc1 (configuration not stated) | inactive: -3.52% |
| COc1ccc(-c2c3c(=O)n(C)c(=O)n(C)c3c3c(-c4ccccc4)nc4ccccc4n23)cc1 | inactive: 3.77% [at 11.5 µM, percent change from vehicle, -100% = no light] |
| CNC(=O)c1cc2c(n(-c3ccc(C)cc3)c1=O)CC(C)(C)CC2=O | inactive: -9.39% |
| Cc1cc(C)c(Nc2nn3c(=O)c4cc5c(cc4nc3s2)OCO5)c(C)c1 | inactive: -6.61% |
| O=C(Nc1ccc2nc(SCC(=O)N3CCOCC3)sc2c1)c1ccc(F)cc1 | inactive: -24.7% |
| COc1cccc(C(=O)Nc2ccc3oc(-c4ccc5ccccc5c4)nc3c2)c1 | inactive: 17.6% |
| COc1cc(OC)cc(-c2nc3nc(C)c(CCC(=O)Nc4ccc(Cl)cc4)c(C)n3n2)c1 | inactive: -15.5% |
| CCOC(=O)Cn1c(=O)oc2cc(S(=O)(=O)Nc3cc(OC)cc(OC)c3)ccc21 | inactive: -14.5% |
| COc1ccccc1C(=O)NCc1ccc2c(c1)CCN2C(=O)c1cccc(C)c1 | inactive: -3.55% |
| COc1ccc(N2CCN(C(=O)C3CCN(S(=O)(=O)c4cnc[nH]4)CC3)CC2)cc1 | inactive: 5.08% |
| CCc1ccccc1Nc1nn2c(=O)c3ccc(C(=O)NCc4cccs4)cc3nc2s1 | inactive: -29.5% |
| COC(=O)C1=C(C)NC(COC(N)=O)=C(C(=O)OC(C)C)C1c1cccc(Cl)c1Cl (configuration not stated) | inactive: -22.9% |
| Cc1cccc(C(=O)Nc2cccc(C(=O)OCc3cc(=O)n4c5c(sc4n3)CCCC5)c2)c1 | inactive: -19.5% |
| CN1CCN(C(c2ccc(F)cc2)c2sc3nc(-c4ccco4)nn3c2O)CC1 (configuration not stated) | inactive: 20.6% |
| CCn1c(C)c(C)c2cc(C(=O)NCCc3cc(OC)c(OC)c(OC)c3)ccc21 | inactive: -33.2% |
| CCc1ccc(S(=O)(=O)c2nnn3c2nc(NCc2cccs2)c2sccc23)cc1 | inactive: -38.9% |
| CCc1ccc(NC(=O)c2cc(C(C)=O)n3ccccc23)cc1 | inactive: 14.9% |
| CC(C)c1ccc(C2N3CC4(C)CN2CC(c2ccccc2)(C3)C4=O)cc1 (configuration not stated) | inactive: 4.82% |
| CCCc1nn2c(=O)cc(COC(=O)c3cccc(NC(=O)COc4ccc(F)cc4)c3)nc2s1 | inactive: 8.89% |
| CCOC(=O)c1scc(-c2ccccc2)c1S(=O)(=O)Nc1ccccc1F | inactive: -33.2% |
| Clc1cccc(N2CCN(c3ncnc4c3nc3n4CCCCC3)CC2)c1 | inactive: -61.3% |

| SMILES | activity change, positive = activation |
| --- | --- |
| Cc1nc(-c2ccc(Cl)cc2)sc1CCNC(=O)C(=O)Nc1ccc(F)cc1F | inactive: -1.25% |
| O=C(O)c1cc(NC2(c3ccccc3)C(=O)c3ccccc3C2=O)ccc1Cl | inactive: -1.14% |
| Cc1cc(C)c(Cn2c3ccccc3c3cnn(CC(=O)NC4CCC(C)CC4)c(=O)c32)c(C)c1 (configuration not stated) | inactive: -21.7% |
| O=C(Cn1c(=O)oc2cc(S(=O)(=O)N3CCCCC3)ccc21)Nc1cccc(Cl)c1 | inactive: -45.8% |
| CCCCN1C(=O)c2[nH]nc(-c3ccccc3O)c2C1c1cccc(OCc2ccccc2)c1 (configuration not stated) | inactive: -31.1% |
| Cc1ccccc1NC(=O)c1ccc(F)c(S(=O)(=O)N(C)Cc2ccccc2)c1 | inactive: -33.2% |
| COc1ccccc1C1C=C(c2ccc(F)cc2)Nc2nc(-c3ccc(Cl)cc3)nn21 (configuration not stated) | inactive: -36.6% |
| COC(=O)c1sccc1S(=O)(=O)N1CCN(c2ccccc2)CC1 | inactive: -14.8% |
| CCOc1ccc(CCNC(=O)CCc2c(C)nc3c4c(C)cc(C)nc4nn3c2C)cc1 | inactive: -22.3% |
| Cc1ccc2[nH]c(=O)c3cc(C(=O)N4CCN(c5ccccc5)CC4)sc3c2c1 | inactive: 0.0729% |
| Cc1cccc(C(=O)Nc2sc3c(c2C(=O)NCc2ccco2)CCCC3)c1 | inactive: 27% |
| COc1cccc(NC(=O)NCc2ccc3c(c2)CCN3C(=O)c2ccccc2)c1 | inactive: -26.7% |
| CCN(CC)S(=O)(=O)c1ccc2c(c1)N(CC(=O)NCCCN1CCN(c3ccccc3F)CC1)C(=O)CO2 | inactive: -6.85% |
| CC(C)CCNC(=O)CCCN1C(=O)c2ccccc2Sc2ncccc21 | inactive: -20.5% |
| COc1cc(-c2noc(CN3CCN(c4ccccc4)CC3)n2)cc(OC)c1OC | inactive: 2.3% |
| CCOC(=O)c1ccccc1NC(=O)N1CCc2c(sc(C)c2CC)C1c1ccccc1 (configuration not stated) | inactive: -15.8% |
| COc1ccccc1-c1nc2c(c(SCc3cccc(Cl)c3)n1)Cc1c(CO)cnc(C)c1O2 | inactive: -31.4% |
| Cc1cccc(NC(=O)C(=O)NCC(c2ccc3c(c2)OCO3)N2CCOCC2)c1C (configuration not stated) | inactive: -18.2% |
| CCc1ccc(C2c3c(-c4ccccc4O)n[nH]c3C(=O)N2Cc2ccncc2)cc1 (configuration not stated) | inactive: -40.8% |
| COc1cc(OC)cc(C(=O)Oc2c(Sc3ccccc3)c(C)nn2C(C)(C)C)c1 | inactive: -17.7% |
| Cc1cn2c(=O)cc(COC(=O)c3cccc(NC(=O)COc4ccccc4Cl)c3)nc2s1 | inactive: -53.3% |
| CN1CCN(C(CNC(=O)c2cccc(F)c2)c2ccc3c(c2)OCO3)CC1 (configuration not stated) | inactive: -1.32% |
| Cc1cc(C)c(NC(=O)C2CCN(c3nc4ccccc4[nH]3)CC2)c(C)c1 | inactive: -12.1% |
